# Assay results: PubChem BioAssay AID1745853 (National Center for Advancing Translational Sciences (NCATS), 2022)
# The other results are listed elsewhere or left out. Further columns of the screen follow, without active or inactive calls.
# Columns and labels:
# Assay in all cases: Primary Screen for Target Class Profiling of Small Molecule Inhibitors of Methyltransferases
# [1] = target: Glycine N-methyltransferase (Homo sapiens) (UniProt Q14749); conditions: purified enzyme, MTase-Glo SAH luminescence; measured here: GNMT inhibition; at 40 µM; stronger effect = lower value
# How it was run: (§1)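 Each enzyme was assayed with SAM and its substrate. SAH formation detected by MTase-Glo luminescence; single-point 40 uM screen[…].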
# [2] = target: Guanidinoacetate N-methyltransferase (Homo sapiens) (UniProt Q14353); conditions: purified enzyme, MTase-Glo SAH luminescence; measured here: GAMT inhibition; at 40 µM; stronger effect = lower value
# How it was run: as §1
# [3] = target: Histamine N-methyltransferase (Homo sapiens) (UniProt P50135); conditions: purified enzyme, MTase-Glo SAH luminescence; measured here: HNMT inhibition; at 40 µM; stronger effect = lower value
# How it was run: as §1
# [4] = target: Nicotinamide N-methyltransferase (Homo sapiens) (UniProt P40261); conditions: purified enzyme, MTase-Glo SAH luminescence; measured here: NNMT inhibition; at 40 µM; stronger effect = lower value
# How it was run: as §1
# [5] = target: Phenylethanolamine N-methyltransferase (Homo sapiens) (UniProt P11086); conditions: purified enzyme, MTase-Glo SAH luminescence; measured here: PNMT inhibition; at 40 µM; stronger effect = lower value
# How it was run: as §1
# % is set by controls: 0 for no effect and ±100 for the full control effect.
Structure (SMILES),"activity change, negative = inhibition [1] [%]","activity change, negative = inhibition [2] [%]","activity change, negative = inhibition [3] [%]","activity change, negative = inhibition [4] [%]","activity change, negative = inhibition [5] [%]"
CN1CC[C@H](N(Cc2ccccc2)Cc2ccccc2)C[C@H](O)C1,-9.88,-13.7,-8.64,-20,-13.5
C=CCn1c(=O)c2ccc(C(=O)NCC(C)C)cc2n2c(=O)n(CC(=O)Nc3ccc(F)cc3)nc12,0.799,2.02,2.9,-3.38,-0.556
Cc1ccsc1C(=O)N1CC(Oc2ccccc2-c2nc(-c3cnccn3)no2)C1,-11.4,-7.43,-6.69,-15.2,-8.65
COc1cc(OC)cc(C(=O)Nc2ccc3nc(Nc4cccc(C(F)(F)F)c4)cc(C)c3c2)c1,–,-6.43,–,-20.5,-4.36
Nc1c(S(=O)(=O)c2ccccc2)c2nc3ccccc3nc2n1-c1ccc(F)cc1,-8.47,-10.9,4.5,-24.3,-8.12
COC1(C2=NCCN2)COc2ccccc2O1 (stereo not drawn),6.34,10.4,11.1,-6.4,-3.74
Cc1ccc(Cn2c(=O)c3ccccc3n3c(SCC(=O)Nc4cccc(C)c4)nnc23)cc1,0.867,3.43,3.66,1.56,3.12
C=CCn1c(=O)c2ccc(C(=O)NC(C)C)cc2n2c(=O)n(CC(=O)NC(C)C)nc12,7.93,0,7.51,2.53,5.95
COc1ccccc1CNC(=O)C1c2c(n(C)c3ccccc23)SCC(=O)N1Cc1cccs1 (stereo not drawn),8.95,1.18,0.933,2.82,4.69
Cc1ncc(-c2ccnc(Nc3ccc(S(C)(=O)=O)cc3)n2)n1C(C)C,-10.1,0.212,0.523,-17.8,2.23
CC(C)Cn1c(=O)c2ccccc2n2c(CCC(=O)N3CCN(c4ccccc4)CC3)nnc12,-15.9,4.61,-7.51,-34,-6.13
COCCC1(N(C)C)CCN(C(=O)c2ccnn2C)CC1,-2.6,-1.66,-1.64,-6.57,-3.66
Cc1cccc(C(=O)N2C[C@H]3OC(=O)N(CCCN4CCOCC4)[C@H]3C2)c1,-2.8,-2.57,-1.79,-8.98,-0.503
O=C(CC1CCCC1)N1CCCC(c2nn[nH]n2)C1 (stereo not drawn),1.32,2.22,2.44,-4.12,14.2
Cc1nc2c3ccccc3n3c(CCCC(=O)NCCc4ccccc4)nnc3n2n1,-7.44,0,2,10.4,-2.31
CCc1ccc(-c2nc(CSCC(=O)NCCc3ccccc3)c(C)o2)cc1,-4.33,-5.56,-4.22,-29.5,-22.9
CC1(C(=O)NC2CCCCCC2)Cn2c(ccc2-c2ccco2)C(=O)N1Cc1ccc(Cl)cc1 (stereo not drawn),-8.04,4.36,3.19,-10.8,-0.398
COCCN1C[C@H]2CN(C(=O)C3CCC3)C[C@@]2(C(=O)O)C1,-0.577,3.02,1.38,3.29,2.31
Nc1nc(NCc2ccc(Cl)cc2Cl)cc(C2CC(O)C2)n1 (stereo not drawn),-7.77,-8.78,-62,-45.3,-9.47
CCCC1c2cccn2CCN1C(=O)Nc1ccccc1Br (stereo not drawn),3.36,1.15,-42.6,3.62,9.06

Structure (SMILES),"activity change, negative = inhibition [1] [%]","activity change, negative = inhibition [2] [%]","activity change, negative = inhibition [3] [%]","activity change, negative = inhibition [4] [%]","activity change, negative = inhibition [5] [%]"
Cc1ccc(-c2nnn3c2nc(NCc2ccccc2)c2ccccc23)cc1,0.807,0,3.19,10.9,-1.95
CCOc1ccccc1CN1C(=O)c2cc3ccccc3n2CC1(C)C(=O)NCc1ccccc1 (stereo not drawn),3.13,4.94,5.69,0.544,-0.452
COc1ccc(-c2n[nH]n3c2nc(=O)c2ccc(C(=O)NCc4ccc(C)cc4)cc23)cc1,0.682,0,9.83,5.14,4.2
Cn1cc(CCC(=O)N[C@@H]2CCOC[C@H]2Oc2ccc(C(=O)O)cc2)cn1,0.061,-4.18,-1.73,-3.56,-22.5
CCN1C(=O)c2c(C(=O)NCCc3cccc(C)c3)ncn2CC1(C)C(=O)NC1CCCC1 (stereo not drawn),-1.33,0.207,8.89,4.56,7.47
CC(=O)Nc1c2n(c3ccc(F)cc13)CC(C)(C(=O)NCCC(C)C)N(C1CCCCCC1)C2=O (stereo not drawn),0.567,0.802,3.64,-5.8,-0.642
CC1CCCC(C)N1CCCN1C(=O)c2cc3occc3n2CC1(C)C(=O)NC1CCCCC1 (stereo not drawn),-4.73,0,-3.72,7.4,-2.05
CC(C)(C)CN1CCC2(CC1)COc1ccccc1[S+](=O)([O-])N2,-3.71,-4.27,-3.72,-10.7,6.37
Nc1cc(=O)[nH]c(N)n1,3.21,15.4,11.8,-4.63,2
OCC(O)CCO/N=C1/C(c2c(O)[nH]c3ccccc23)=Nc2ccccc21 (stereo not drawn),–,-22.7,–,-29.9,-21
COc1c2c(c(C)c3c1C(=O)OC3)O[C@@]1(C)CCC3(C(C)(C)O)OC(=O)CC[C@]3(C)[C@H]1C2 (stereo partly drawn),-7.7,-8.35,-6.84,-19,-0.566
N[C@@H](Cc1c[nH]c2ccccc12)C(=O)O,-12.7,0.339,-5.69,-9.63,-9.63
CCCn1c(=O)c2ccc(C(=O)NC(C)C)cc2n2c(=O)n(CC(=O)Nc3ccc(C)cc3Cl)nc12,5.73,0,-2.19,3.75,2.83
CCOC(=O)c1cccc(NS(=O)(=O)c2ccc3c(c2)n(C)c(=O)n3C)c1,-4.05,2.42,-10.7,-8.95,-7.86
CN[C@@H]1[C@@H](O)[C@@H](O[C@@H]2[C@@H](O)[C@H](O[C@H]3O[C@@H]([C@@H](C)NC)CC[C@H]3N)[C@@H](N)C[C@H]2N)OC[C@]1(C)O,4.58,–,2.13,–,–
CN1CC2(CCOC2)N(C2CCN(C(=O)C3CCCC3)CC2)C1=O (stereo not drawn),-2.75,-9.08,-4.12,-12.2,-9.56
CC1CCN(CCCNC(=O)CCc2nnc3n(Cc4ccccc4Cl)c(=O)c4ccccc4n23)CC1,-4.73,0.234,-60.4,0.425,-4.51
CCc1cccc(NS(=O)(=O)c2ccc3[nH]c(=O)[nH]c3c2)c1,0.346,0.954,2.93,-4.95,-11.4
CCOc1ccccc1CN1C(=O)c2c(C(=O)OC)ncn2CC1(C)C(=O)NC1CCCC1 (stereo not drawn),-2.58,3.49,-0.314,6.83,-1.64
CCCn1c(=O)c2ccccc2n2c(=O)n(CC(=O)c3ccc(OC)cc3)nc12,-3.06,6.05,5.97,-5.68,1.69
